Experimental data reported in the supplement of paper PMC12217912.
The list shows a part of the results. The full chains were built here from the parent and the listed change. Inactive controls read about 0.05.

B1: TEV protease; numbered along this chain (parent)
chain: MGESLFKGPRDYNPISSSICHLTNESDGHTTSLYGIGFGPFIITNKHLFRRNNGTLVVQSLHGVFKVKDTTTLQQHLVDGRDMIIIRMPKDFPPFPQKLKFREPQREERICLVTTNFQTKSMSSMVSDTSCTFPSGDGIFWKHWIQTKDGQCGSPLVSTRDGFIVGIHSASNFTNTNNYFTSVPKNFMELLTNQEAQQWVSGWRLNADSVLWGGHKVFMVKPEEPFQPVKEATQL

Variants of: B1
Test: raw area under fraction-flipped curve 0-4 h after induction (AUC4h, not background-subtracted), DNA-recorder readout of cleavage of the substrate (dimensionless); higher = more cleavage of the substrate by the protease variant
Conditions: temperature: 34 °C; time window: 0-4 h after rhamnose induction
Method: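 In vivo DNA recorder in E. coli TOP10(DE3) ΔrhaA at 34 °C. Each TEVp single-site mutant (parent TEVp 0) is paired with a single-site variant of the 7-mer TEVs (canonical ENLYFQ|S). The substrate sits between flexible linkers in a Bxb1-sfGFP-TEVs-SsrA fusion, so cleavage stabilises Bxb1 and speeds flipping of a recombination array, read by NGS. The value is the raw area under the fraction-flipped curve over 0-4 h after rhamnose induction (AUC4h), with ≥20 reads per time point. It is not background-subtracted; inactive controls average about 0.047.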
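Note: Bxb1 expression induced with 0.2% (w/v) L-rhamnose at OD600 near 0.5, cultures sampled hourly, flipped fraction per protease–substrate barcode pair counted by paired-end Illumina sequencing.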

| Variant | area with substrate ANLYFQS | area with substrate CNLYFQS | area with substrate HNLYFQS | area with substrate MNLYFQS | area with substrate NNLYFQS | area with substrate PNLYFQS | area with substrate QNLYFQS | area with substrate SNLYFQS | area with substrate VNLYFQS | area with substrate WNLYFQS | area with substrate YNLYFQS | area with substrate FNLYFQS | area with substrate GNLYFQS | area with substrate KNLYFQS | area with substrate LNLYFQS | area with substrate TNLYFQS | area with substrate INLYFQS | area with substrate RNLYFQS | area with substrate DNLYFQS |
| --- | --- | --- | --- | --- | --- | --- | --- | --- | --- | --- | --- | --- | --- | --- | --- | --- | --- | --- | --- |
| G213D | 0.0672 | 0.0437 | 0.0646 | 0.0963 | 0.0564 | 0.0837 | 0.0675 | 0.0906 | 0.0598 | 0.0537 | 0.0672 |  |  |  |  |  |  |  |  |
| G213W | 0.0308 | 0.0605 | 0.0521 |  | 0.0512 | 0.0584 | 0.045 | 0.0556 |  | 0.0597 | 0.062 | 0.0477 | 0.0556 | 0.062 | 0.058 | 0.0551 |  |  |  |
| N186W | 0.0741 | 0.0621 | 0.0709 | 0.0663 | 0.0372 | 0.0597 |  | 0.0992 |  | 0.0391 |  |  | 0.0454 |  | 0.0642 | 0.059 |  |  |  |
| L61K | 0.0718 | 0.0659 |  | 0.0729 |  | 0.0704 |  |  |  | 0.0596 |  | 0.0403 | 0.067 |  |  | 0.0582 | 0.0667 |  |  |
| R51L | 0.0483 | 0.0823 | 0.052 | 0.062 |  | 0.0702 |  | 0.0808 | 0.063 | 0.0579 | 0.0627 |  | 0.063 | 0.0637 | 0.0603 | 0.0564 | 0.06 | 0.0544 |  |
| G54Y | 0.0774 | 0.0727 | 0.0538 | 0.0766 | 0.0695 |  | 0.0716 | 0.0487 | 0.0511 | 0.0429 | 0.058 | 0.0569 |  |  | 0.0743 | 0.0699 | 0.048 |  |  |
| S130C | 0.0625 | 0.0556 |  |  | 0.0777 |  |  | 0.09 |  | 0.0654 |  |  |  | 0.0762 | 0.0806 | 0.066 |  |  |  |
| G28N | 0.0668 | 0.0613 | 0.058 | 0.0477 | 0.0601 | 0.0675 | 0.0425 | 0.0668 |  | 0.0573 |  |  | 0.0533 | 0.0673 |  | 0.132 |  |  |  |
| G28W | 0.0702 | 0.0551 | 0.0601 | 0.0445 | 0.0559 | 0.0624 |  | 0.0539 |  | 0.0498 |  | 0.0497 | 0.0637 |  | 0.0464 | 0.068 | 0.0739 |  |  |
| I19C | 0.0755 |  | 0.0574 |  | 0.0605 | 0.105 |  |  | 0.0827 |  | 0.0619 |  | 0.06 | 0.0671 | 0.0679 | 0.0846 | 0.0612 |  | 0.0759 |
| I84C | 0.0524 | 0.0592 | 0.0521 | 0.0695 |  | 0.0763 |  | 0.0625 |  | 0.0557 |  |  |  | 0.0582 | 0.0739 | 0.0913 | 0.0642 | 0.0621 |  |
| S121D | 0.0798 |  | 0.0097 | 0.0735 | 0.0445 | 0.0679 |  | 0.0499 | 0.0928 |  | 0.057 |  |  | 0.0576 | 0.0675 | 0.0595 | 0.095 |  | 0.0914 |
| S121L | 0.0535 | 0.0724 | 0.0547 | 0.0539 | 0.0636 | 0.0667 |  | 0.0695 |  | 0.0523 | 0.0634 | 0.0616 |  |  | 0.0646 | 0.0643 | 0.0819 |  |  |
| N175D | 0.0676 | 0.0596 | 0.0692 | 0.0481 | 0.0581 | 0.0575 |  | 0.0626 | 0.0501 | 0.0613 | 0.0617 | 0.0559 | 0.0631 | 0.0641 |  | 0.0508 | 0.0698 |  |  |
| I110Q | 0.0545 | 0.0557 | 0.0564 |  | 0.0467 | 0.061 |  | 0.0576 | 0.0544 | 0.0425 |  |  | 0.0562 | 0.0446 |  | 0.0639 |  |  |  |
| D137K | 0.0609 | 0.0593 | 0.0631 |  |  |  |  |  |  |  | 0.0687 | 0.0643 |  | 0.0674 | 0.0636 | 0.0539 |  |  |  |
| N45A | 0.0657 | 0.0463 | 0.0475 | 0.0618 |  | 0.0666 |  | 0.0573 | 0.0517 | 0.0579 | 0.0485 | 0.0562 | 0.0661 | 0.0643 | 0.0459 | 0.0592 | 0.0536 | 0.0588 |  |
| K120Q | 0.0403 |  | 0.0429 |  | 0.0612 | 0.0662 |  | 0.0697 | 0.0645 |  | 0.0646 |  |  | 0.0624 |  | 0.053 | 0.0648 |  |  |
| K7Q | 0.0642 | 0.0645 | 0.0715 | 0.0672 |  |  |  | 0.0674 | 0.0745 | 0.0595 |  | 0.0618 | 0.0832 | 0.0517 |  | 0.069 | 0.0528 |  |  |
| S26A | 0.0461 | 0.058 | 0.0578 |  | 0.0601 | 0.0454 | 0.0772 | 0.0505 |  | 0.0408 | 0.0612 | 0.0571 | 0.0639 | 0.0385 | 0.0675 | 0.0578 | 0.0682 |  |  |
| Q74F | 0.0639 | 0.0773 | 0.0033 |  |  |  | 0.0857 |  |  | 0.0569 | 0.061 |  |  |  | 0.0659 | 0.0544 | 0.0629 |  |  |
| L156V | 0.0958 |  | 0.0402 | 0.0711 | 0.0602 | 0.0795 |  | 0.0603 | 0.0722 | 0.061 | 0.0641 | 0.058 | 0.0636 | 0.069 | 0.0631 | 0.0651 | 0.0649 |  | 0.0626 |
| L156M | 0.0584 |  | 0.0695 | 0.0266 | 0.0582 |  |  |  | 0.0615 | 0.0604 | 0.0686 |  | 0.0836 | 0.0716 | 0.0628 | 0.0685 | 0.0654 |  | 0.0903 |
| D82Q | 0.0656 | 0.0616 |  | 0.054 |  | 0.0584 |  | 0.0733 |  | 0.0556 | 0.0599 | 0.0513 |  |  |  | 0.0385 | 0.0587 |  |  |
| D69C | 0.0527 | 0.0708 | 0.0599 |  |  | 0.0364 |  |  |  | 0.0577 | 0.0668 |  | 0.0824 | 0.0519 |  | 0.0634 | 0.0701 |  | 0.0851 |
| T55Y | 0.0512 |  | 0.0599 |  |  | 0.0719 |  | 0.0825 | 0.0703 |  |  |  | 0.0541 | 0.0742 |  | 0.0606 |  |  | 0.0651 |
| S201L | 0.047 |  | 0.0621 | 0.0744 | 0.0779 | 0.0609 |  | 0.0564 | 0.0602 | 0.0574 | 0.0615 | 0.06 | 0.073 |  |  | 0.0637 | 0.0506 |  | 0.0745 |
| S201I | 0.0613 | 0.0631 | 0.0652 |  | 0.0687 |  |  | 0.0666 | 0.055 | 0.0611 |  |  |  |  | 0.057 | 0.0661 |  |  |  |
| T159L | 0.0639 | 0.0764 | 0.115 | 0.0507 | 0.0704 |  |  | 0.0469 |  | 0.0648 | 0.0452 | 0.0635 | 0.0854 |  | 0.0705 |  | 0.0525 | 0.0649 |  |
